# Data published in ChEMBL document CHEMBL1157539, “Thousands of chemical starting points for antimalarial lead identification” (Nature, 2010).
# The full ranking holds about 13,000 compounds; the median of “IFI” is about 4, and the highest 2% start at about 17. The list shows a part of the results.
# Experiment: GSK_TCMDC: Inhibition Frequency Index (IFI). The number of non-kinase HTS assays where a compound showed > 50 % inhibition, expressed as a percentage of the number of such assays in which the compound was tested (-0 is zero)
# Assay type: functional
row,Structure (SMILES),IFI [%]
1,COc1ccc2[nH]ccc(=NN=Cc3cccc(F)c3)c2c1,5.26
2,O=C(/C=C/c1ccc(Cl)c(Cl)c1)NCCCCCN1CCC(NC(=O)Nc2cc(F)cc(F)c2)CC1,7.95
3,Cc1cccc2nc(-c3ccc(-c4cccc(CNCC5CCCO5)c4)cc3)[nH]c12 (configuration not stated),2.97
4,C[C@H](Cc1ccc(OCCNC[C@H](O)c2cccc(Cl)c2)cc1)NC[C@H](O)c1ccc(Cl)c(Cl)c1,11.4
5,Cc1nc(-c2ccc(C(F)(F)F)cn2)sc1C(=O)N1CCc2cc3nccc(N4CCN5CCC[C@H]5C4)c3cc21,5.88
6,Oc1cc(Nc2ccnc3cc(-c4cccc(CN5CCOCC5)c4)ccc23)c(F)cc1Cl,5.22
7,COc1ccc(-c2cnc3[nH]cc(-c4ccc(C(=O)O)c(C)c4)c3c2)cn1,6.73
8,CCCCCCN(CCCCCC)CCCCNc1c2ccc(Cl)cc2nc2ccc(OC)cc12,10.6
9,CC(=O)Nc1ccc(CN2CCC(NC(=O)c3cc(-c4ccc(N(C)C)cc4)cs3)C2)cc1 (configuration not stated),3.64
10,CCc1cn2c3c(cc(C(=O)N[C@@H](Cc4cccc(Cl)c4)[C@H](O)CNC4CCCCC4)cc13)N(C)S(=O)(=O)CC2,5.51
11,CCc1cn2c3c(cc(C(=O)N[C@@H](Cc4cc(F)cc(F)c4)[C@H](O)CNC4CCCCC4)cc13)N(C)S(=O)(=O)CC2,5.07
12,N#Cc1ccc2c(c1)CCN(CCC1CCC(NC(=O)c3cccc(-c4ccc(F)cc4)c3)CC1)CC2 (configuration not stated),2.22
13,O=C(NC1CCN(c2ccnc3ccccc23)C1)c1ccc(OC(F)(F)F)cc1 (configuration not stated),3.13
14,COc1ccc2c(c1)CC(NCc1ccc(-c3ccc4nc[nH]c4c3)cc1)C2 (configuration not stated),-0
15,CC(C)NCc1ccc(-c2cccc(NC(=O)c3cccc(Cl)c3)c2)cc1,3.88
16,Cc1ccc(C)c(Cn2c(N3CCC(C(=O)NCc4cccs4)CC3)nc3ccccc32)c1,5.94
17,CC(C)NC[C@@H](O)[C@H](Cc1ccccc1)NC(=O)c1cc2c3c(c1)c(C(C)C)cn3CCS(=O)(=O)N2C,1.47
18,O=C(Cc1ccccc1)NC(c1ccc(Cl)cc1)c1ccc2cccnc2c1O (configuration not stated),6.06
19,CC(C)CCN1CCCN(Cc2cccc(NC(=O)c3cc4ccccc4s3)c2)CC1,4.62
20,COc1ccccc1Nc1nc(NC2CCN(C)CC2)cc(-c2cccc(C(F)(F)F)c2)n1,15.5
21,CCCCCN1CCC(NS(=O)(=O)c2cccc(C(=O)Nc3ccc(Cl)cc3)c2)CC1,6.8
22,Fc1ccc(Nc2ccnc3cc(-c4cccc(CNCCN5CCOCC5)c4)ccc23)c(Cl)c1,4.32
23,CS(=O)(=O)NCCCNCc1cccc(-c2ccc(-c3nc4cc(C(F)(F)F)ccc4[nH]3)s2)c1,4.95

row,Structure (SMILES),IFI [%]
1,CC(C)OCCCNC(=O)c1nc(-c2cccc(C(F)(F)F)c2)sc1C(C)C,2.63
2,CC(C)(C)c1ccc(CNC(=O)c2cc(CNC3CCNC3)ccc2O)cc1 (configuration not stated),1.46
3,COCCNCc1ccc(-c2ccc(CNc3ccc4ncccc4c3)cc2)cc1,10.1
4,CCc1cc2c(N)nc(N)nc2nc1-c1ccccc1,0
5,O=C(Nc1cccc(CN2CCN(C(=O)c3cccc(F)c3)CC2)c1)c1cccs1,3.05
6,CCn1ncc2c(NC3CCOCC3)c(CNC(=O)c3ccnn3C)c(C)nc21,0
7,c1cncc(Oc2ccc(Nc3ccnc4cc(-c5cccc(CN6CCCCC6)c5)ccc34)cc2)c1,9.56
8,CCN(CC)CC(O)CNc1c2ccc([N+](=O)[O-])cc2nc2cc(OC)c(OC)cc12 (configuration not stated),5.71
9,Cc1cc(OCC2CCN(c3ncc(C(=O)Nc4ccccc4)cc3Cl)CC2)ccc1F,4.17
10,CCCCCCN1CCCN(Cc2ccc(C(=O)Nc3cccc(CC)c3)cc2)CC1,7.87
11,CCOc1ccc(C(=O)Nc2cc(Br)c3c(c2)CNCC3)cc1C(F)(F)F,8.51
12,CC1=NN(c2ccc(C)c(C)c2)C(=O)C1=NNc1cccc(-c2cccc(NC(=O)OC(C)(C)C)c2)c1O,4.9
13,CC(NC(C)c1cccc(Cl)c1)C(=O)Nc1cc(C(F)(F)F)ccc1N1CCOCC1 (configuration not stated),1.82
14,CN1CCC(NCc2cccc(-c3ccc(S(=O)(=O)NCCc4ccccn4)cc3)c2)CC1,1.75
15,CCC[C@@H]([C@@H](CC(C)C)C(=O)N[C@@H](CCCCNC(=O)c1cccc(OC)c1)C(=O)Nc1nccs1)N(O)C=O,2.13
16,COc1csc2cc(Br)ccc12,1.46
17,Cc1cccc2nc(-c3ccc(-c4ccc(NC(=O)Nc5ccc(Cl)cc5)cc4)cc3)[nH]c12,4
18,O=c1cc(NCCCN(Cc2cc3c(Cl)cc(Cl)cc3[nH]2)Cc2cc3c(Cl)cc(Cl)cc3[nH]2)[nH]c2ccccc12,6.72
19,COc1ccc2nccc(N3CCN(CCNCc4ccc5c(n4)NC(=O)CS5)CC3)c2n1,1.43
20,Cc1ccc(O)cc1Nc1ccnc2ccc(-c3cccc(CN(C)C)c3)cc12,3.7
21,Brc1ccc(C=NNc2nc3ccccc3[nH]2)cc1,2.17
22,NC(=O)c1cccc(C(=O)Nc2cccc(-c3ccc(-c4nc5ccccc5[nH]4)s3)c2)c1,3.45
23,COc1ccc2c(N/N=C/c3ccccc3[N+](=O)[O-])ccnc2c1,3.62

row,Structure (SMILES),IFI [%]
1,COc1cccc(NC(=O)Nc2ccc(Nc3nc(C)cc(N4CCCC4)n3)cc2)c1,17.3
2,CCN1CCN(c2cc(C)c3cc(NC(=O)c4cncc(Br)c4)ccc3n2)CC1,1.35
3,O=C(NCCN1CCCCC1)c1cc2cc(-c3ccccc3)ccc2n1S(=O)(=O)c1ccccc1,5.33
4,O=C(Nc1ccc(C(F)(F)F)cc1)c1cccc(S(=O)(=O)NC2CCN(Cc3ccccc3)C2)c1 (configuration not stated),8.33
5,CC1CN(Cc2cccc(-c3ccc(-c4nc5cc(F)ccc5[nH]4)cc3)c2)CC(C)O1 (configuration not stated),5.56
6,CCOC(=O)c1cnc2c(OC)cc(OC)c(Cl)c2c1Nc1cccc(C)c1,2.84
7,N=C(N)NC(=O)Nc1ccc(Cl)c(C(F)(F)F)c1,1.53
8,CC(=NNC(S)=NCCc1ccccc1)c1ccccn1,4.83
9,NC(=O)c1ccccc1Nc1nc(Nc2ccc(N3CCOCC3)cc2)ncc1[N+](=O)[O-],7.04
10,Cc1cc(NCc2ccccc2)nc2cc(O)ccc12,4.62
11,COc1ccc2nccc([C@@H](O)CN3CCC(NCc4cc5cc(Cl)ccc5[nH]4)CC3)c2c1,5.97
12,Oc1ccc(CCNc2nc(NCCCOc3cccc(CN4CCCCC4)c3Cl)nc(N3CCNCC3)n2)cc1,4.69
13,CCc1c(CCNCCCCCCNCCc2ccc(Br)cc2)ccc(OC)c1OC,11
14,CN(C)CCCNc1c2ccccc2nc2ccccc12,3.68
15,COc1cc(C)c(NC(=O)c2cccc3c(=O)c(C)c(-c4ccccc4)oc23)cc1OC,3.64
16,O=C(Nc1ccc2c(c1)CCN2C1CCN(Cc2ccc(F)cc2Cl)C1)c1ccco1 (configuration not stated),3.33
17,Cc1cccc(OC2CCN(c3ncc(C(=O)NCCCN4CCCC4=O)cc3Cl)CC2)c1,5.88
18,Cc1cc2nc(-c3ccc(C(=O)NCc4ccc(C(C)(C)C)cc4)cc3)[nH]c2cc1C,0
19,C=C[C@H]1CN(CCCCCCC)CC[C@H]1CCNc1ccnc2ccc(OC)cc12,11.3
20,CN(C)CCN(C)Cc1ccc(-c2ccc(NC(=O)c3ccc(Cl)cc3)cc2)cc1,9.09
21,CCOc1ccccc1CCNC(C)Cc1ccc(C(=O)Nc2ccc(CC(C)NCCc3cccc(Cl)c3)cc2)cc1 (configuration not stated),10
22,COc1ccc(OCC(=O)Nc2cc(-c3nc4ccccc4[nH]3)ccc2Cl)cc1,0
23,N#Cc1cc(C(=O)Nc2ccccc2)c(N)nc1SCC(=O)Nc1ccc(Br)cc1,4.44

row,Structure (SMILES),IFI [%]
1,CCn1c(-c2nonc2N)nc2c(C#CC(C)(C)O)ncc(OCCNCCc3ccc(OC)cc3)c21,7.84
2,CC1(C)N=C(N)N=C(N)N1OCc1cc(Cl)c(CON2C(N)=NC(N)=NC2(C)C)cc1Cl,2.8
3,COc1ccc(NC(=O)/C=C/c2ccccc2Cl)cc1OCCN1CCC(NC2CC2)CC1,4.23
4,CC(C)C(C(=O)n1ncc2c3c(N)nc(N)nc3ccc21)C(C)C,3.05
5,Cc1[nH]c2ccc(NS(C)(=O)=O)cc2c1C1CCN(CCC2CCN(C(=O)/C=C/c3ccc(Cl)c(Cl)c3)CC2)CC1,5.8
6,FC(F)(F)COc1c(CCNCCCCNCCc2ccc3ccccc3c2OCC(F)(F)F)ccc2ccccc12,19.3
7,COCc1nc(-c2ccccc2)nc(N2CCN(C(=O)NC(C)C)CC2)c1Cc1ccccc1F,3.45
8,COc1ccc(CNC2CCN(C)CC2)cc1-c1ccc(S(=O)(=O)NC2CCC2)cc1,4.9
9,C[C@@H](NC(=O)c1nn(-c2ccc(Cl)cc2)c(=O)c2ccccc12)C(C)(C)C,-0
10,Clc1ccc2c(NCCc3ccccn3)ccnc2c1,-0
11,Cc1nc2nc(N)nc(N)c2c(C)c1Cc1ccc([N+](=O)[O-])cc1,1.6
12,COc1ccc(Oc2ccc(-c3c(O)cc(C)nc3C)cc2)cc1,1.53
13,CCOc1cc(C(=O)Nc2cccnc2)ccc1-c1nc2cc(Cl)c(Cl)cc2[nH]1,-0
14,CCOC(=O)N1CCN(C(=O)Nc2ccc(Cl)cc2)CC1,0
15,C=CCCCNCC(NCCCNc1cc(=O)c2ccccc2[nH]1)c1cc(Br)cc(Br)c1 (configuration not stated),2.82
16,Cc1cccc2nc(-c3cccc(-c4cccc(NC(=O)COc5ccccc5C(N)=O)c4)c3)[nH]c12,6.09
17,Cc1ccc(-n2c(Sc3ncnc4sccc34)nnc2N2CCCC2)cc1,6.06
18,CC(CN(C)C)C(=O)Nc1cccc(-c2cccc(-c3nc4ccccc4[nH]3)c2)c1 (configuration not stated),5.41
19,Cc1cc(NC(=O)c2cccs2)ccc1OC1CCN(Cc2ccc(C#N)cc2)CC1,2.99
20,Cc1ccc(Oc2ccccc2NC(=O)CCc2nc3ccccc3c(=O)[nH]2)cc1,-0
21,Cc1cc(N[C@@H](CC(C)C)C(=O)NCc2cccc(F)c2)nc(NCC2CCCCC2)n1,18.6
22,CCN(CC)CCCNc1c2ccccc2nc2ccccc12,2.24
23,Cc1ccc(C(NC(=O)c2ccccc2)c2ccc3cccnc3c2O)cc1 (configuration not stated),9.09
